Assay results taken from the supplement of paper PMC3334620.
In all, about 33,000 sequences were measured (“E-score (-0.5 to 0.5)”: median about -0.04, highest 2% from about 0.36 on). This is one part of the list.

biological target: T1, Hmlalpha2 (UniProt P0CY09); assay: PBM E-score (8-mer binding enrichment) (E-score (-0.5 to 0.5)); higher = stronger / more preferred TF binding; most listed sequences are background and not binding sites; conditions: protein concentration: 200 nM; construct: GST-full length
T1 sequence: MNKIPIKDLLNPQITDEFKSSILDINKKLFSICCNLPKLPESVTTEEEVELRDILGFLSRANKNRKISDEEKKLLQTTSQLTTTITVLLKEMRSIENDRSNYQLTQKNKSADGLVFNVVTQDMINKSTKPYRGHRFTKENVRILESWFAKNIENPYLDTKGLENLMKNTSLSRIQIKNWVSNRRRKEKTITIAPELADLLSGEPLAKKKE
Method in brief: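 Using PURExpress in vitro transcription/translation, GST-tagged yeast transcription factors were made in full-length or DNA-binding-domain form. These were applied at about 100-200 nM to double-stranded universal all-10-mer Agilent arrays, and bound protein was detected with fluorescent anti-GST. Scans were normalised with masliner before the Universal PBM Analysis Suite assigned E-scores to ungapped eight-base words pooled with their reverse complements.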

Going from GGTTGCGA to AAGTTGCG, the “PBM E-score” value rises from -0.0767 to 0.0701.

Compared with ATAGCAAT, AATGTTGC is higher in “PBM E-score” value: 0.118 for the first, 0.169 for the second.

Going from CCCAGGGG to ACAAGACT, the “PBM E-score” value rises from -0.247 to 0.0694.

Compared with GGTAGCCA, AGAGCAGG is higher in “PBM E-score” value: -0.108 for the first, -0.0266 for the second.

Going from TATCGAGA to CTGACCAC, the “PBM E-score” value falls from -0.0709 to -0.173.

Compared with GCCAAGAC, ATTCGCCA is higher in “PBM E-score” value: -0.161 for the first, -0.108 for the second.

Compared with AAAATCTC, CTTCGAGC is lower in “PBM E-score” value: 0.0731 for the first, -0.117 for the second.

First: CATTAAAA
Second: ATGCTAAT
The “PBM E-score” value of the first is lower: 0.164 for the first, 0.167 for the second.

Going from CGTGATGA to GAGCTTAC, the “PBM E-score” value rises from 0.0439 to 0.0644.

Going from AAGTCGCT to CGCCGGGC, the “PBM E-score” value falls from -0.126 to -0.299.

Going from GGAGGCCC to TATTGTAA, the “PBM E-score” value rises from -0.39 to 0.318.

First: TCACCTCA
Second: CGGCTCAA
The “PBM E-score” value of the first is higher: 0.00387 for the first, -0.0531 for the second.

Going from AGGCCTCC to ATTGGCTG, the “PBM E-score” value rises from -0.157 to -0.141.

Going from GGATTCAC to GCTAACCA, the “PBM E-score” value falls from -0.0617 to -0.16.

Compared with AGCCCTAG, GACCAAAA is higher in “PBM E-score” value: -0.0567 for the first, 0.0759 for the second.

Going from AACTCAGT to GCGGATAA, the “PBM E-score” value rises from -0.0844 to 0.00496.

Compared with CCCGGGGC, ATGTACAC is higher in “PBM E-score” value: -0.318 for the first, 0.43 for the second.

Compared with CACGCGGA, GAACCATC is lower in “PBM E-score” value: 0.109 for the first, -0.0493 for the second.

First: CCCTGACG
Second: AAAGCATA
The “PBM E-score” value of the first is lower: -0.351 for the first, 0.104 for the second.

Compared with ATCTATAA, GGGCTCCA is lower in “PBM E-score” value: 0.117 for the first, -0.303 for the second.

First: CAGGTACA
Second: CATATTCC
The “PBM E-score” value of the first is higher: 0.181 for the first, -0.143 for the second.

Compared with CCACCCAG, AACTACAC is higher in “PBM E-score” value: -0.23 for the first, 0.42 for the second.

First: CCGCCAAA
Second: TACACAAA
The “PBM E-score” value of the first is lower: -0.105 for the first, 0.431 for the second.

Compared with GTATGGAA, GATAGTCA is higher in “PBM E-score” value: -0.205 for the first, -0.124 for the second.

Going from CCTGTGAA to GGGGTAGA, the “PBM E-score” value falls from 0.0484 to -0.0339.

First: GCTCTTAA
Second: AATAGCTA
The “PBM E-score” value of the first is lower: -0.00267 for the first, 0.014 for the second.

First: CCGGATAA
Second: ATTTTTCG
The “PBM E-score” value of the first is lower: -0.137 for the first, 0.0941 for the second.

Going from GGGTTCAA to CTCTCCCA, the “PBM E-score” value falls from 0.0465 to -0.23.

Compared with GTTGGAGA, ACGGCAGG is lower in “PBM E-score” value: 0.083 for the first, -0.291 for the second.

Compared with GTATATGA, ATTTACTA is higher in “PBM E-score” value: 0.17 for the first, 0.232 for the second.

Going from CTATTGTC to ACGGGAAT, the “PBM E-score” value rises from -0.244 to -0.145.

Compared with ACCAAGTA, GATGGAAA is lower in “PBM E-score” value: 0.156 for the first, -0.0196 for the second.

Compared with TCCTCTCA, GTTGTGAA is higher in “PBM E-score” value: -0.115 for the first, 0.226 for the second.

First: CTTAGATA
Second: GGGTCTAA
The “PBM E-score” value of the first is lower: -0.0381 for the first, 0.0219 for the second.

Going from GTCGGGTA to ATACCGTA, the “PBM E-score” value rises from -0.092 to -0.0794.

First: ATGGCCAT
Second: AATCGCCT
The “PBM E-score” value of the first is higher: -0.00733 for the first, -0.0652 for the second.

Compared with CTGTTCGC, GTTACTAA is higher in “PBM E-score” value: 0.0955 for the first, 0.237 for the second.

Going from GCCCACCC to CTGGGGTA, the “PBM E-score” value rises from -0.185 to -0.118.

Going from GGCCTACA to CCGTACAG, the “PBM E-score” value falls from 0.0554 to -0.0438.

Going from CGGGGAAC to AAAATCGC, the “PBM E-score” value falls from 0.00808 to -0.182.

Compared with AACGCTCG, CCAAACTC is lower in “PBM E-score” value: -0.0324 for the first, -0.0887 for the second.

Going from GATGGGGC to ACCCGCGC, the “PBM E-score” value rises from -0.0438 to 0.183.

Compared with CGACCTAC, AACAATCA is higher in “PBM E-score” value: -0.141 for the first, 0.208 for the second.

Compared with CAATCACA, AAACCCAA is lower in “PBM E-score” value: 0.217 for the first, 0.0846 for the second.

Compared with ATGAATTC, ATCATAGG is lower in “PBM E-score” value: -0.0161 for the first, -0.0906 for the second.

First: ACCGTAGT
Second: CACTTTCC
The “PBM E-score” value of the first is lower: -0.225 for the first, -0.158 for the second.

First: ACCCGAAG
Second: GCGTTAGC
The “PBM E-score” value of the first is lower: -0.231 for the first, 0.222 for the second.

First: CAAATTAC
Second: GAGACGAC
The “PBM E-score” value of the first is higher: 0.264 for the first, -0.19 for the second.

Going from CTTAGGAA to AGGTGTCA, the “PBM E-score” value falls from 0.0437 to -0.0246.

Compared with TGTTCAAA, GGGTGCGA is lower in “PBM E-score” value: 0.352 for the first, -0.161 for the second.

Compared with GTTCAGGA, AAAAATCA is higher in “PBM E-score” value: -0.0739 for the first, 0.111 for the second.

First: CCATACAA
Second: CCGAAAAA
The “PBM E-score” value of the first is lower: -0.0282 for the first, 0.0733 for the second.

Going from TCAACTAA to GACGTTAA, the “PBM E-score” value rises from 0.147 to 0.181.

First: AGAGTAAC
Second: ACGATAGG
The “PBM E-score” value of the first is higher: -0.0242 for the first, -0.204 for the second.

First: AACTTAGG
Second: GTCTGGCA
The “PBM E-score” value of the first is higher: 0.0845 for the first, -0.318 for the second.

Compared with CGTGTACC, CACATACG is lower in “PBM E-score” value: 0.326 for the first, 0.0723 for the second.

First: ACGCGATA
Second: CAGTTGGC
The “PBM E-score” value of the first is higher: 0.324 for the first, -0.147 for the second.

First: GGCCATTA
Second: CGAGGAAC
The “PBM E-score” value of the first is higher: 0.0102 for the first, 0.00528 for the second.

Going from ATTCTGGA to ACTATTAA, the “PBM E-score” value rises from 0.155 to 0.165.

Compared with AGAAATGC, ATTAGTCA is lower in “PBM E-score” value: 0.0811 for the first, 0.0626 for the second.

Going from AAGCAGCA to GTTGCCAA, the “PBM E-score” value rises from -0.102 to 0.0594.

Compared with AATATCGG, CGGTCTGA is higher in “PBM E-score” value: -0.0765 for the first, -0.0313 for the second.

First: AATCGCAG
Second: TCAGACAA
The “PBM E-score” value of the first is lower: -0.0368 for the first, -0.0193 for the second.

Compared with CAGATAAA, GGGCGATA is lower in “PBM E-score” value: -0.0551 for the first, -0.245 for the second.

Compared with GTGCCCCA, AATTTCTA is higher in “PBM E-score” value: -0.197 for the first, 0.189 for the second.

Going from AAACCCGG to ATTGGATG, the “PBM E-score” value rises from -0.153 to 0.105.

Compared with GATCTTTA, AGGTCTTC is lower in “PBM E-score” value: 0.131 for the first, -0.234 for the second.

GACCACCA and ACCTAGCT are the same in “PBM E-score” value: -0.179 for the first, -0.179 for the second.

First: AATGGAGT
Second: ATGTCCTG
The “PBM E-score” value of the first is lower: -0.0239 for the first, 0.0247 for the second.

First: AAAATCAT
Second: CGAACAGA
The “PBM E-score” value of the first is higher: 0.12 for the first, 0.0105 for the second.

First: ACCAAACC
Second: GTCGCGAA
The “PBM E-score” value of the first is lower: -0.15 for the first, -0.0825 for the second.

Compared with ACCGACAT, GAGAGCCA is lower in “PBM E-score” value: 0.198 for the first, -0.126 for the second.

First: CCGGGTTC
Second: TATCCGAA
The “PBM E-score” value of the first is higher: -0.0699 for the first, -0.122 for the second.

Compared with AAGATCAC, CCAGGCTC is lower in “PBM E-score” value: -5e-05 for the first, -0.141 for the second.

First: GCCAGGTA
Second: AACTATAC
The “PBM E-score” value of the first is lower: 0.057 for the first, 0.227 for the second.

Going from AACGTTAC to GAAGATCA, the “PBM E-score” value falls from 0.15 to -0.0916.

Compared with GCGATGCA, CCTGGGAG is lower in “PBM E-score” value: -0.214 for the first, -0.255 for the second.

Compared with GGGTGACC, AAGGGCTA is lower in “PBM E-score” value: -0.126 for the first, -0.183 for the second.

Compared with CGAGGATC, GACATTCC is higher in “PBM E-score” value: -0.124 for the first, -0.0517 for the second.

First: CTTGCACC
Second: ACGCACAG
The “PBM E-score” value of the first is lower: -0.238 for the first, 0.167 for the second.

Compared with CACTCATG, CCGCCCAC is lower in “PBM E-score” value: -0.084 for the first, -0.141 for the second.

Going from AGGCGCTA to CAAAACAA, the “PBM E-score” value rises from 0.0751 to 0.151.

Compared with AGTTCATC, AAGGATGT is higher in “PBM E-score” value: -0.00587 for the first, 0.159 for the second.

First: GGCGGGTA
Second: CACCGTTA
The “PBM E-score” value of the first is lower: -0.165 for the first, 0.104 for the second.

Compared with AGGCTAAA, AAATATTG is higher in “PBM E-score” value: -0.0131 for the first, 0.0291 for the second.

Compared with CCGGCAAG, GTCTATGA is higher in “PBM E-score” value: -0.103 for the first, -0.0293 for the second.
